56 compounds from article PMC4336329 (PLoS ONE, 2015) can be followed below.

The campaign covered roughly 310,000 compounds. About 14,000 (4.5%) showed an effect of 50% or more. The effect is printed as a negative number. Some of the results follow.
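Further: peak tail current of the secondary pulse compared with the same well before compound.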

In the experiment the target is human ether-à-go-go-related gene (hERG) potassium channel (human, UniProt Q12809). In words: primary screen, population patch clamp on CHO cells stably expressing hERG.
human ether-à-go-go-related gene (hERG) potassium channel, sequence (Q12809 whole entry, looked up): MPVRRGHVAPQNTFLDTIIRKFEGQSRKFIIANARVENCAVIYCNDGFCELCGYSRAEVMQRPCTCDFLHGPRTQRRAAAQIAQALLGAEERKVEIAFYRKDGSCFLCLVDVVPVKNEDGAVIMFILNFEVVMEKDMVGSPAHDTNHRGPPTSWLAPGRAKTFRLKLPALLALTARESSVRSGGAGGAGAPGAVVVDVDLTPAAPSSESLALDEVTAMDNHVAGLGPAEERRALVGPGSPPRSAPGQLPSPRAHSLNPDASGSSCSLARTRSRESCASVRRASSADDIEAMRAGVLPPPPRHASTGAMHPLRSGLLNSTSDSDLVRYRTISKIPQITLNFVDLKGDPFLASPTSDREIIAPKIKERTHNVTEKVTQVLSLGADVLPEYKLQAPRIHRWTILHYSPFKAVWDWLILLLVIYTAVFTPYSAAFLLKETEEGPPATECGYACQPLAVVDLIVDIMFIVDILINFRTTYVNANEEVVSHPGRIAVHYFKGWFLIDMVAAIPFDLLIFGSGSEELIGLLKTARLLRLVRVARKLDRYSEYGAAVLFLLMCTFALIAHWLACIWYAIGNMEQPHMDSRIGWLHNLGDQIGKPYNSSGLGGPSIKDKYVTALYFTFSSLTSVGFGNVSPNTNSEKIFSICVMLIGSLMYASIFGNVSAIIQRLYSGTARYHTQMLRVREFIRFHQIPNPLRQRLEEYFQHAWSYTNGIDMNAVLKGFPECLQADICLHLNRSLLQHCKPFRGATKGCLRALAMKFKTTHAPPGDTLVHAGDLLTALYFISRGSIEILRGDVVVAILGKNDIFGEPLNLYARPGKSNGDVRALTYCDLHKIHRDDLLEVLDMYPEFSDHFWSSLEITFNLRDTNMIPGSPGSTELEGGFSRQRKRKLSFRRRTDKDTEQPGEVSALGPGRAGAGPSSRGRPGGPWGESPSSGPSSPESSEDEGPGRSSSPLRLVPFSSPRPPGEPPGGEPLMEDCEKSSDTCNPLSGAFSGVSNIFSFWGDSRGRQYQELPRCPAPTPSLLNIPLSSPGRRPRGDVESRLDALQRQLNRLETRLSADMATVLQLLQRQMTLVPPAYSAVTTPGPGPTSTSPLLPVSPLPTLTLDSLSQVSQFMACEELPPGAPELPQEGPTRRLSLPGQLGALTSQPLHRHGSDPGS
As for `CNC(=O)C1CC(=O)N(CCc2ccc(OC)c(OC)c2)C(=Nc2ccc(F)cc2)S1` (centres unmarked), the “hERG current change (%, negative = inhibition) at 10uM” value is given as -6.4%.

As to `CNC(=O)N(O)C1N(/N=C/c2cc(Br)ccc2O)C(=S)SC1(C)C` (centres unmarked), the “hERG current change (%, negative = inhibition) at 10uM” value is recorded as 16.5%.

As to `N#CCC(=O)Nc1ccc(C(=O)OCC(=O)NNC(=O)c2ccc(Cl)cc2)cc1`, the “hERG current change (%, negative = inhibition) at 10uM” value came out at 1.74%. On to `CC(=O)C1=C(C)NC(SCC(=O)c2ccccc2)=C(C#N)C1c1ccco1` (centres unmarked), for which the “hERG current change (%, negative = inhibition) at 10uM” value was 3.34%. Take `Cc1cccc(C)c1N1C(=O)C2ON(c3ccccc3)C(c3ccncc3)C2C1=O` (centres unmarked): the “hERG current change (%, negative = inhibition) at 10uM” value was -24.6%. Next, `COc1ccc(-c2[nH]c(-c3ccc(F)cc3)nc2SCC(=O)NC2CCCC2)cc1`: -15.7%; `CCOC(=O)N1CCN(C(=O)COc2ccccc2OC)CC1`: 15.2%; `Cc1ccc(-c2csc3nc[nH]c(=O)c23)c(C)c1`: -6.91%. Next, `Cc1ccc(S(=O)(=O)Nc2ccccc2C(O)c2ccccc2)cc1` (centres unmarked): 6.43%; `CCC(=O)c1ccc(N2CCN(C(=O)c3ccccc3F)CC2)c(F)c1`: -20.7%; `COc1ccc(NC(=O)CCS(=O)(=O)c2ccc3c(c2)NC(=O)C(C)S3)cc1OC` (centres unmarked): 21.2%. Next, `CCOc1ccc(NC(=O)c2ccc(CNc3c(NC4CCCCC4)c(=O)c3=O)cc2)cc1`: 13.2%. Regarding `CC(C)(CO)NC(=O)CC1C(=O)NCCN1Cc1ccc(-c2ccccc2)cc1` (centres unmarked), the “hERG current change (%, negative = inhibition) at 10uM” value was determined as 6.61%. Consider `Cc1ccc(-c2cc(C(=O)N(C)Cc3cnn(C)c3C)c3cc(Br)ccc3n2)cc1`, for which the “hERG current change (%, negative = inhibition) at 10uM” value was -36.9%. Turning to `O=C(O)c1ccc(Nc2nc3ccccc3nc2NS(=O)(=O)c2cccs2)cc1`, the “hERG current change (%, negative = inhibition) at 10uM” value is given as 17.6%.

On to `O=C(O)c1ccc(-n2cc(C(=O)c3ccccc3O)cn2)cc1`, for which the “hERG current change (%, negative = inhibition) at 10uM” value was 19.2%. Take `CN(C)C(=S)SCC(=O)Nc1cccc(C(F)(F)F)c1`: the “hERG current change (%, negative = inhibition) at 10uM” value is given as -54.6%. The result for `CCOC(=O)C1(CCOc2ccccc2)CCN(C(C)CSC)CC1` (centres unmarked) reads -55.3%.

Turning to `CC(C)(C)Nc1cccccc1=O`, the “hERG current change (%, negative = inhibition) at 10uM” value was 4.91%.

As for `Cn1c(=O)c2c(nc(NCc3ccccc3)n2CC(N)=O)n(C)c1=O`, the “hERG current change (%, negative = inhibition) at 10uM” value was 7.28%. Next, `C=CCn1c(CSCc2ccc(Cl)cc2)nnc1SCC(=O)NCc1ccccc1`: -38.5%; `Cc1csc(SCC(=O)Nc2ccc(Cl)cn2)n1`: -5.15%; `CCC1(c2ccccc2)NC(=O)N(CC(=O)N(C)Cc2c(F)cccc2Cl)C1=O` (centres unmarked): -6.29%.

In the case of `O=C(CN1C(=O)NC2(CCOc3ccccc32)C1=O)NCc1ccc(F)cc1` (centres unmarked), the “hERG current change (%, negative = inhibition) at 10uM” value is on record as -2.05%. Next, `CC(=O)C1=C(c2ccccc2)NC(=O)NC1c1ccc(O)c(O)c1` (centres unmarked): 6.47%; `Cc1cccc(OCCC(=O)Nc2nnc(C)s2)c1`: 16.4%. `Cc1cc2nc(-c3ccc(SCC(=O)N4CCN(C(=O)c5ccco5)CC4)nc3)[nH]c2cc1C`: the “hERG current change (%, negative = inhibition) at 10uM” value amounted to 2.64%. The result for `Nc1nonc1-c1noc(-c2ccccc2Br)n1` reads -29.8%; that for `Cc1ccc(-n2nc(-c3ccccc3)cc2Nc2ccccc2N)cc1`, 18.9%. Next, `CS(=O)(=O)N(Cc1ccccc1)c1ccc(C(=O)NN=C2CCCCCC2)cc1`: -7.75%. The result for `Cc1sc2ncnc(N3CCC(C(=O)N(C)CC(=O)Nc4ccccc4Br)CC3)c2c1C` reads -65.8%; that for `O=C(COC(=O)/C=C/c1ccccc1)NC(=O)NCc1ccccc1`, 1.04%; that for `Cc1nn(-c2ccccc2)c(N2CCCC2)c1/C=N/NC(=S)Nc1ccc(F)cc1`, 2.81%. Turning to `CC(=O)N(C)C1=C(O)c2ccccc2C(=O)C1=O`, the “hERG current change (%, negative = inhibition) at 10uM” value was determined as 22.3%.

Regarding `CCCCNC(=O)c1onc(CSc2ccc(OC)cc2)c1C(=O)O`, the “hERG current change (%, negative = inhibition) at 10uM” value is given as -0.549%.

For `CC1(C)Cc2c(sc(NC(=O)c3ccc(C(=O)c4ccccc4)cc3)c2C(N)=O)C(C)(C)N1`, the “hERG current change (%, negative = inhibition) at 10uM” value amounted to 5.78%. On to `O=C(/C=C/Nc1ccc(F)c(Cl)c1)c1ccco1`, for which the “hERG current change (%, negative = inhibition) at 10uM” value is -0.57%. The result for `O=C(CCl)N1CCN2C(=O)c3ccccc3C12c1ccc(Cl)cc1` (centres unmarked) reads -1.56%; that for `COc1ccc(C(C(=O)NCC2CCCO2)N(C(=O)CNC(=O)c2cccs2)c2ccc(C)cc2)cc1OC` (centres unmarked), 4.2%; that for `CCOC(=O)Cn1cc(C(=O)C2CC2)c2ccccc21`, -21.7%.

As to `COc1cccc(COC(=O)C2CCN(S(=O)(=O)c3ccc(C)cc3)CC2)c1OC`, the “hERG current change (%, negative = inhibition) at 10uM” value is 9.16%. The result for `COC(=O)CSc1n[nH]c(=S)s1` reads 13.5%; that for `O=C(Nc1ccccc1)Nc1ccc(C(=O)N2CCCC2)cc1`, 2.45%. The result for `CC(=O)c1ccc(S(=O)(=O)N2CCC(c3nc4ccccc4[nH]3)CC2)cc1` reads -54.3%; that for `CC1(C)CC(NC(=O)Cc2ccc(Cl)cc2)CC(C)(C)N1`, 12.7%; that for `Cc1ccc(S(=O)(=O)C(C#N)c2nc3ccccc3nc2N2CCCC2)cc1C` (centres unmarked), 1.95%. Turning to `Cc1c(/C=N/O)c2ccccc2n1C`, the “hERG current change (%, negative = inhibition) at 10uM” value is given as 5.39%. Next, `COCCNCCCCSc1ccc(Cl)cc1`: -50.8%; `Cc1cccc(C(=O)N[C@H](C(=O)NCCc2ccc(Cl)cc2)C(C)C)c1`: 1.23%; `Nc1cc(C(=O)OCC(=O)NCCCc2ccccc2)ccc1Cl`: 0.466%. Regarding `Cc1cc(Cn2nnnc2-c2ccncc2)cc(C)c1O`, the “hERG current change (%, negative = inhibition) at 10uM” value amounted to 6.54%. For the compound `COc1ccc(-c2csc(/C(C#N)=C\c3ccc(OC)c([N+](=O)[O-])c3)n2)cc1`, the “hERG current change (%, negative = inhibition) at 10uM” value is recorded as -5.86%. The result for `Cn1nccc1NC(=O)Nc1ccccc1` reads 21.8%; that for `COc1cc(/C=N/Nc2nc(Nc3ccccc3)nc(N3CCCCC3)n2)ccc1OCC(=O)O`, -1.74%. The result for `COc1ccc(C(=O)N[C@H](C(=O)OCC(=O)NC(=O)c2cccn2C)C(C)C)cc1` reads -11.5%; that for `C=C(C)CNC(=S)N=Nc1c(O)[nH]c2ccc([N+](=O)[O-])cc12`, 8.96%.
